The other results are listed elsewhere or left out. Sequences were assembled here from the parent chain. Values near 0.05 are background.
B1: TEV protease; numbered along this chain (parent)
chain: MGESLFKGPRDYNPISSSICHLTNESDGHTTSLYGIGFGPFIITNKHLFRRNNGTLVVQSLHGVFKVKDTTTLQQHLVDGRDMIIIRMPKDFPPFPQKLKFREPQREERICLVTTNFQTKSMSSMVSDTSCTFPSGDGIFWKHWIQTKDGQCGSPLVSTRDGFIVGIHSASNFTNTNNYFTSVPKNFMELLTNQEAQQWVSGWRLNADSVLWGGHKVFMVKPEEPFQPVKEATQL

Variants of: B1
Test: raw area under fraction-flipped curve 0-4 h after induction (AUC4h, not background-subtracted), DNA-recorder readout of cleavage of the substrate (dimensionless); higher = more cleavage of the substrate by the protease variant
Conditions: temperature: 34 °C; time window: 0-4 h after rhamnose induction
Experimental: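 In vivo DNA recorder in E. coli TOP10(DE3) ΔrhaA at 34 °C. Each TEVp single-site mutant (parent TEVp 0) is paired with a single-site variant of the 7-mer TEVs (canonical ENLYFQ|S). The substrate sits between flexible linkers in a Bxb1-sfGFP-TEVs-SsrA fusion, so cleavage stabilises Bxb1 and speeds flipping of a recombination array, read by NGS. The value is the raw area under the fraction-flipped curve over 0-4 h after rhamnose induction (AUC4h), with ≥20 reads per time point. It is not background-subtracted; inactive controls average about 0.047.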
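Note: Bxb1 expression induced with 0.2% (w/v) L-rhamnose at OD600 near 0.5, cultures sampled hourly, flipped fraction per protease–substrate barcode pair counted by paired-end Illumina sequencing.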

| Variant | area with substrate ENLCFQS | area with substrate ENLGFQS | area with substrate ENLHFQS | area with substrate ENLKFQS | area with substrate ENLMFQS | area with substrate ENLPFQS | area with substrate ENLRFQS | area with substrate ENLVFQS | area with substrate ENLDFQS | area with substrate ENLSFQS | area with substrate ENLWFQS | area with substrate ENLEFQS | area with substrate ENLLFQS | area with substrate ENLNFQS | area with substrate ENLFFQS | area with substrate ENLIFQS | area with substrate ENLQFQS | area with substrate ENLTFQS |
| --- | --- | --- | --- | --- | --- | --- | --- | --- | --- | --- | --- | --- | --- | --- | --- | --- | --- | --- |
| MGESLFKGPRDYNPISSSICHLTNESDGHTTSLYGIGFGPFIITNKHLFRRNNGTLVVQSLHGVFKVKDTTTLQQHLVDGRDMIIIRMPKDFPPFPQKLKFREPQREERICLVTTNFQTKSMSSMVSDTSCTFPSGDGIFWKHWIQTKDGQCGSPLVSTRDGFIVGIHSASFFTNTNNYFTSVPKNFMELLTNQEAQQWVSGWRLNADSVLWGGHKVFMVKPEEPFQPVKEATQL [N172F] | 0.0552 | 0.0785 | 0.0769 | 0.057 | 0.0615 | 0.057 | 0.0604 | 0.0644 | – | – | – | – | – | – | – | – | – | – |
| MGESLFKGPRDYNPISSSICHLTNESDGHTTSLYGIGFGPFIITNKHLFRRNNGTLVVQSLHGVFKVKDTTTLQQHLVDGRDMIIIRMPKDFPPFPQKLKFREPQREERICLVTTNFQTKSMSSMVSDTSCTFPSGDGIFWKHWIQTKDGQCGSPLVSTRDGFIVGIHSASNRTNTNNYFTSVPKNFMELLTNQEAQQWVSGWRLNADSVLWGGHKVFMVKPEEPFQPVKEATQL [F173R] | 0.0292 | – | 0.0645 | 0.0627 | 0.0707 | – | – | 0.0588 | 0.0668 | 0.0649 | 0.0919 | – | – | – | – | – | – | – |
| MGESLFKGPRDYNPISSSICHLTNESDGHTTSLYGIGFGPFIITNKHLFRRNNGTLVVQSLHGVFKVKDTTTLQQHLVDGRDMIIIRMPKDFPPFPQKLKFREPQREERICLVTTNFQTKSMSSMVSDTSCTFPSGDGIFWKHWIQTKDGQCGSPLVSTRDGFIVGIHSASNFTNTNTYFTSVPKNFMELLTNQEAQQWVSGWRLNADSVLWGGHKVFMVKPEEPFQPVKEATQL [N178T] | 0.0622 | 0.0584 | 0.0743 | 0.0655 | – | 0.057 | 0.0634 | – | – | – | 0.0612 | 0.0668 | 0.0741 | 0.0579 | – | – | – | – |
| MGESLFKGPRDYNPISSSICHLTNESDGHTTSLYGIGFGPFIITNKHLFRRNNGTLVVQSLHGVFKVKDTTTLQQHLVDGRDMIIIRMPKDFPPFPQKLKFREPQREERICLVTTNFQTKSMSSMVSDTSCTFPSGDGIFWKHWIQTKDGQCGSPLVSTRDGFIVGIHSASNFTNTNNWFTSVPKNFMELLTNQEAQQWVSGWRLNADSVLWGGHKVFMVKPEEPFQPVKEATQL [Y179W] | 0.0706 | – | – | – | – | 0.0584 | – | – | – | 0.077 | – | – | – | 0.0545 | 0.0663 | – | – | – |
| MGESLFKGPRDYNPISSSICHLTNESDGHTTSLYGIGFGPFIITNKHLFRRNNGTLVVQSLHGVFKVKDTTTLQQHLVDGRDMIIIRMPKDFPPFPQKLKFREPQREERICLVTTNFQTKSMSSMVSDTSCTFPSGDGIFWKHWIQTKDGQCGSPLVSTRDGFIVGIHSASNFTNTNNYDTSVPKNFMELLTNQEAQQWVSGWRLNADSVLWGGHKVFMVKPEEPFQPVKEATQL [F180D] | 0.0461 | – | 0.0578 | 0.0723 | 0.065 | 0.0533 | 0.0554 | – | 0.0561 | 0.0863 | 0.0507 | – | – | 0.0599 | 0.014 | – | – | – |
| MGESLFKGPRDYNPISSSICHLTNESDGHTTSLYGIGFGPFIITNKHLFRRNNGTLVVQSLHGVFKVKDTTTLQQHLVDGRDMIIIRMPKDFPPFPQKLKFREPQREERICLVTTNFQTKSMSSMVSDTSCTFPSGDGIFWKHWIQTKDGQCGSPLVSTRDGFIVGIHSASNFTNTNNYFTSVPWNFMELLTNQEAQQWVSGWRLNADSVLWGGHKVFMVKPEEPFQPVKEATQL [K185W] | 0.0813 | – | 0.0504 | 0.0767 | 0.0808 | 0.0656 | – | 0.0736 | 0.0781 | 0.0657 | 0.0633 | 0.0905 | – | 0.0638 | 0.0763 | 0.1 | 0.0817 | 0.0533 |
| MGESLFKGPRDYNPISSSICHLTNESDGHTTSLYGIGFGPFIITNKHLFRRNNGTLVVQSLHGVFKVKDTTTLQQHLVDGRDMIIIRMPKDFPPFPQKLKFREPQREERICLVTTNFQTKSMSSMVSDTSCTFPSGDGIFWKHWIQTKDGQCGSPLVSTRDGFIVGIHSASNFTNTNNYFTSVPKKFMELLTNQEAQQWVSGWRLNADSVLWGGHKVFMVKPEEPFQPVKEATQL [N186K] | 0.0673 | – | 0.057 | 0.0766 | – | 0.0636 | 0.0814 | – | 0.062 | – | – | – | – | – | 0.095 | 0.059 | 0.0791 | 0.105 |
| MGESLFKGPRDYNPISSSICHLTNESDGHTTSLYGIGFGPFIITNKHLFRRNNGTLVVQSLHGVFKVKDTTTLQQHLVDGRDMIIIRMPKDFPPFPQKLKFREPQREERICLVTTNFQTKSMSSMVSDTSCTFPSGDGIFWKHWIQTKDGQCGSPLVSTRDGFIVGIHSASNFTNTNNYFTSVPKQFMELLTNQEAQQWVSGWRLNADSVLWGGHKVFMVKPEEPFQPVKEATQL [N186Q] | 0.0666 | – | – | 0.0796 | – | – | – | – | – | 0.0579 | – | – | 0.0661 | 0.0691 | 0.0701 | – | 0.0331 | – |
| MGESLFKGPRDYNPISSSICHLTNESDGHTTSLYGIGFGPFIITNKHLFRRNNGTLVVQSLHGVFKVKDTTTLQQHLVDGRDMIIIRMPKDFPPFPQKLKFREPQREERICLVTTNFQTKSMSSMVSDTSCTFPSGDGIFWKHWIQTKDGQCGSPLVSTRDGFIVGIHSASNFTNTNNYFTSVPKNFMSLLTNQEAQQWVSGWRLNADSVLWGGHKVFMVKPEEPFQPVKEATQL [E189S] | 0.0685 | – | 0.0296 | 0.0718 | – | – | – | – | – | 0.0822 | – | 0.0402 | – | 0.0592 | – | 0.074 | – | – |
| MGESLFKGPRDYNPISSSICHLTNESDGHTTSLYGIGFGPFIITNKHLFRRNNGTLVVQSLHGVFKVKDTTTLQQHLVDGRDMIIIRMPKDFPPFPQKLKFREPQREERICLVTTNFQTKSMSSMVSDTSCTFPSGDGIFWKHWIQTKDGQCGSPLVSTRDGFIVGIHSASNFTNTNNYFTSVPKNFMWLLTNQEAQQWVSGWRLNADSVLWGGHKVFMVKPEEPFQPVKEATQL [E189W] | 0.0779 | 0.0685 | 0.0642 | 0.0865 | – | 0.0513 | 0.0637 | 0.0883 | 0.0625 | 0.0686 | – | – | – | 0.0666 | 0.0807 | 0.0728 | 0.0699 | – |

— the supplement of paper PMC12217912
